Data taken from the supplement of paper PMC7826260.
The other results are listed elsewhere or left out. One pool of 16,384 single-stranded DNAs met each Rep nickase domain in vitro for 1 h at 37 °C with 3 µM enzyme; only the middle of the 90-letter strands is printed. Numbers give uncut DNA relative to the enzyme-free pool, as log2; the lower, the more was cut; hits are not called. Reads are scaled to the total; values above 0 arise when much of the pool is cut.

Key:
Assay in all cases: uncleaved DNA left, log2 of reads against the no-enzyme library (log2 ratio); higher = less cleavage (more negative = more Rep cleavage of the k-mer); sequences stand for … in CTCGTCCG…ACCGGAGA
[1] = test system: T1, Rep nickase domain of Muscovy duck circovirus
T1 sequence (protein, residues 1-111, tag omitted): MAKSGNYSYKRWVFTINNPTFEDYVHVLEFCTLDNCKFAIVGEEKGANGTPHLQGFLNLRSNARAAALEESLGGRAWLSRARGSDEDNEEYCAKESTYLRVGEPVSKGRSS
Description: (§1)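 A pool of 90-nt single-stranded DNAs with seven random bases just before the constant AC of the nick site (name = the seven bases) was cut by 3 µM recombinant His6-SUMO-tagged Rep nickase domain (300 nM DNA, 50 mM HEPES pH 8.0, 50 mM NaCl, 1 mM MnCl2, 1 h, 37 °C, three replicates). Uncut DNA was amplified and sequenced.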

[2] = test system: T2, Rep nickase domain of banana bunchy top virus
T2 sequence (protein, residues 1-94, tag omitted): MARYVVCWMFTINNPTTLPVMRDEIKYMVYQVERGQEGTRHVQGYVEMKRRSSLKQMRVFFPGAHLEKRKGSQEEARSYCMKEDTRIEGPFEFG
Description: as §1

[3] = test system: T3, Rep nickase domain of cabbage leaf curl virus
T3 sequence (protein, residues 1-116, tag omitted): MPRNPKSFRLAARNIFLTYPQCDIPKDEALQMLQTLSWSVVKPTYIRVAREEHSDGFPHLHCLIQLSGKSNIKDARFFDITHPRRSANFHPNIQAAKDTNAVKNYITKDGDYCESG
Description: as §1

[4] = test system: T4, Rep nickase domain of chickpea chlorotic dwarf virus
T4 sequence (protein, residues 1-124, tag omitted): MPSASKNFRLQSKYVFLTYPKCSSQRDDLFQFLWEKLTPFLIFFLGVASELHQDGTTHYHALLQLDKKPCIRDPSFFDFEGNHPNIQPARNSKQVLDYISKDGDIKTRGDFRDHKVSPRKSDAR
Description: as §1

[5] = test system: T5, Rep nickase domain of faba bean necrotic yellows virus
T5 sequence (protein, residues 1-98, tag omitted): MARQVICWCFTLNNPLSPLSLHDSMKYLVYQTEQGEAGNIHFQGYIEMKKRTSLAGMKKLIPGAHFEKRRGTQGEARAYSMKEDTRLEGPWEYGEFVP
Description: as §1

[6] = test system: T6, Rep nickase domain of maize striate mosaic virus
T6 sequence (protein, residues 1-117, tag omitted): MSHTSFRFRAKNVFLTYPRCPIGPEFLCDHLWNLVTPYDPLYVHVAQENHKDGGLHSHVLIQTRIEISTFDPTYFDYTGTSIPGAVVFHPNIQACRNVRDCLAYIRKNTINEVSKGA
Description: as §1

[7] = test system: T7, Rep nickase domain of porcine circovirus 2
T7 sequence (protein, residues 2-116, tag omitted): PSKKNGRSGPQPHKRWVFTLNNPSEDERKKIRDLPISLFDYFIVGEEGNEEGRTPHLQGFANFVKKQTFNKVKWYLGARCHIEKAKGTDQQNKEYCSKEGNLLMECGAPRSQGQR
Description: as §1

[8] = test system: T8, Rep nickase domain of tomato golden mosaic virus
T8 sequence (protein, residues 1-124, tag omitted): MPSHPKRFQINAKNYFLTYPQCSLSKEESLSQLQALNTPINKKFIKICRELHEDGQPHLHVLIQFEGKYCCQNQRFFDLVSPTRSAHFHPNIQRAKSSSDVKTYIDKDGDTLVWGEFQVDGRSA
Description: as §1

[9] = test system: T9, Rep nickase domain of tomato yellow leaf curl virus
T9 sequence (protein, residues 1-136, tag omitted): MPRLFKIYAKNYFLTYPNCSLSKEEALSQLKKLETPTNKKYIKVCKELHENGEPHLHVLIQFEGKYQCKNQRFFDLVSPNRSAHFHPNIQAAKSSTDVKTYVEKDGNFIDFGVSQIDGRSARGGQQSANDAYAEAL
Description: as §1

[10] = test system: T10, Rep nickase domain of wheat dwarf virus
T10 sequence (protein, residues 1-137, tag omitted): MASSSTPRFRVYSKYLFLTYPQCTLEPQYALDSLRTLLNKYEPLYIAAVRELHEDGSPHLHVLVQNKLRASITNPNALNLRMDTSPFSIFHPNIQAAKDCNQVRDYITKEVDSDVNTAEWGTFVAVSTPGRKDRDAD
Description: as §1

Sequence	uncleaved DNA left (log2) [1]	uncleaved DNA left (log2) [2]	uncleaved DNA left (log2) [3]	uncleaved DNA left (log2) [4]	uncleaved DNA left (log2) [5]	uncleaved DNA left (log2) [6]	uncleaved DNA left (log2) [7]	uncleaved DNA left (log2) [8]	uncleaved DNA left (log2) [9]	uncleaved DNA left (log2) [10]
GTTTGGT	-0.163	-0.05	0.258	0.645	0.0664	1.23	-0.296	0.0222	0.0478	0.0309
TGTATTC	0.0394	-0.0885	0.374	0.614	-0.00924	0.739	-0.0178	0.072	0.0116	0.101
CTTCAGT	0.0479	0.0137	-0.206	-0.755	-0.0718	-0.969	-0.116	0.0238	0.0537	0.0659
AGGCCGC	0.043	-0.00493	0.0586	0.167	-0.00706	-0.0366	-0.0893	0.0576	-0.0594	0.0133
ATGCGAC	0.0246	-0.0774	-0.0882	0.225	-0.0632	-0.081	0.198	0.0833	-0.0454	-0.0255
ACCGGCC	-0.103	-0.113	-0.124	0.137	-0.0779	-0.482	0.0112	-0.144	-0.108	-0.0961
TTAAGAA	-0.0913	-0.111	-0.22	-1.26	-0.0416	-0.451	-0.133	-0.0885	-0.119	-0.148
ACGGCGC	-0.0226	-0.147	-0.531	0.0841	-0.112	-0.417	0.0686	-0.102	-0.0583	-0.145
GTAATGA	-0.135	0.046	0.244	0.703	-0.1	1.3	-0.0298	0.0852	-0.0382	0.0103
AGGCGAC	-0.0885	-0.0312	-0.114	0.573	-0.115	0.688	0.0886	-0.0232	-0.125	-0.0687
ACCGAAC	-0.134	-0.0372	-0.0918	-0.207	-0.159	-0.515	0.0615	0.0802	-0.0239	0.0153
TGGACTG	0.0279	-0.0465	0.0433	0.739	-0.0992	1.73	-0.02	-0.066	-0.0534	0.00171
GCCAGAG	0.085	0.0893	-0.317	-0.0717	0.0203	-0.704	0.255	0.148	0.027	-0.0101
CTCGAGG	-0.0927	-0.177	0.362	1.11	-0.162	1.38	-0.0391	-0.197	-0.31	-0.136
CTCATTC	0.0959	0.0452	-0.169	-0.283	0.113	-0.966	0.0862	-0.0643	0.1	0.0677
CGAGTCG	0.0145	-0.0483	-0.467	-0.381	0.0255	-0.876	0.116	-0.0888	0.0948	-0.0917
ATGCGTA	0.0209	-0.0646	-0.687	-0.833	-0.0247	-1.21	-0.0082	-0.0684	0.0381	-0.103
GGCCGCA	-0.0429	-0.0618	0.387	0.909	-0.0484	1.25	0.0613	-0.0235	-0.0895	0.0365
TATGACT	0.0169	0.0078	-0.848	-2.54	0.011	0.374	-0.108	-0.127	0.0406	0.0491
ACCGTAA	-0.0952	-0.0419	-0.391	-0.273	0.061	-0.837	0.119	0.0239	-0.088	-0.0468
ACCCTAG	0.085	0.0257	-0.581	0.078	0.172	-0.711	0.149	0.0272	0.105	-0.0545
TGACCCT	-0.0613	-0.0829	0.644	1.19	-0.0461	1.82	-0.115	-0.186	0.0386	0.0308
CCGACTT	0.126	0.07	0.0332	0.378	-0.116	1.41	-0.0512	-0.00478	-0.0967	0.0237
TGCGAAA	0.148	0.0452	-0.206	-0.281	-0.0255	-0.85	-0.000571	0.0798	-0.112	0.15
GTCTCTG	-0.0124	0.0564	0.301	0.729	0.0177	1.73	0.126	0.149	-0.0116	0.0391
GCTGCTT	-0.0921	-0.195	-0.208	-0.637	-0.0682	0.187	-0.145	-0.0164	-0.101	-0.0317
TCGCGCA	0.102	-0.01	-0.416	-0.596	-0.0168	-0.845	-0.0983	-0.143	-0.0316	-0.00545
AAACACT	0.0257	-0.0748	-1.7	-2.84	-0.0433	-0.948	-0.671	-0.145	-0.0985	-0.438
ACTCGCC	0.0652	0.02	-0.302	-0.269	0.0665	-0.721	0.126	0.0771	-0.0396	0.00145
ATGAACG	0.141	0.0512	-0.594	-0.113	0.151	-0.87	0.246	0.0263	-0.0624	0.0263
